{"source": "PubChem BioAssay AID588549", "about": "(Broad Institute, 2011)", "note": "Among all 360,000 compounds or so, about 780 (0.22%) were called active. This list was built around the results that the source calls inconclusive (neither active nor inactive); the mix of calls is not that of the screen. Rule as the data show it: active = inhibition above about 8.5% (passing the limit was not always enough); inconclusive = no clear call, values can overlap the other calls."}
{"tested_on": "Mycobacterium tuberculosis FadD28 fatty-acid-AMP ligase", "experiment": "inhibitors of FadD28 bisubstrate probe binding, primary screen, biochemical, fluorescence polarization, single point (AID 588549)", "details": "at 12.5 µM, stronger effect = higher value"}
{"compound": "Cc1cc(C)cc(C(O)c2ncc(-c3ccc(C(F)(F)F)cc3)[nH]2)c1", "note": "(centres undefined)", "inhibition": "inactive: -5.99%"}
{"compound": "CC(NC(=O)c1cc2c(=O)n3ccccc3nc2n(CC2CCCO2)c1=N)c1ccccc1", "note": "(centres undefined)", "inhibition": "inactive: 0.362%"}
{"compound": "CCN(CC)CCCNC(=O)C1c2ccccc2C(=O)N(C)C1c1ccc(OC)cc1", "note": "(centres undefined)", "inhibition": "inconclusive: 5.87%"}
{"compound": "O=C1NC(=S)S/C1=C\\c1cc2ccccc2nc1N1CCCCC1", "inhibition": "inconclusive: 10.4%"}
{"compound": "O=C(O)c1cccc(-c2csc(C(O)c3ccccc3)n2)c1", "note": "(centres undefined)", "inhibition": "inactive: -1.8%"}
{"compound": "Cc1ccc(C)c(C(=O)C(C)OC(=O)c2cccn2C)c1", "note": "(centres undefined)", "inhibition": "inconclusive: 43.5%"}
{"compound": "Cc1ccc(O)c(N=CC2=C(O)c3ccccc3C2=O)c1", "inhibition": "inactive: 1.39%"}
{"compound": "COC(=O)c1sc(NC(C)=O)c(C(=O)OC)c1C", "inhibition": "inconclusive: 4.79%"}
{"compound": "Clc1ccccc1-c1cccc2nccn12", "inhibition": "inactive: -0.167%"}
{"compound": "O=C(CN1C(=O)NC2NC(=O)NC21)NC1CCCCC1", "note": "(centres undefined)", "inhibition": "inconclusive: 3.35%"}
{"compound": "CC(C)(C)C1CCc2c(sc(NC(=O)C3CCCO3)c2C(N)=O)C1", "note": "(centres undefined)", "inhibition": "inconclusive: 9.65%"}
{"compound": "CC(=O)N1C(=O)C2(C(C#N)=C(N)Oc3c2c(C)nn3-c2ccccc2)c2ccccc21", "note": "(centres undefined)", "inhibition": "inactive: -2.87%"}
{"compound": "CC1CCCN(S(=O)(=O)c2ccc(NC(=O)Cn3nnc(-c4ccccc4F)n3)cc2)C1", "note": "(centres undefined)", "inhibition": "inconclusive: 6.46%"}
{"compound": "O=C1NN(c2ccccc2)C(=O)/C1=C\\c1ccc(-c2cc([N+](=O)[O-])ccc2O)o1", "inhibition": "inconclusive: 6.6%"}
{"compound": "O=C(Sc1ccc(Cl)cc1)c1ccccn1", "inhibition": "inconclusive: 6.36%"}
{"compound": "CC(C=NNc1ccc([N+](=O)[O-])cn1)=Cc1ccccc1", "inhibition": "inconclusive: 4.69%"}
{"compound": "COc1ccc(C(C)=O)cc1COC(=O)c1cnc(C)cn1", "inhibition": "inconclusive: 8.19%"}
{"compound": "C/C(=N\\NC(=O)c1ccccc1O)C1C(=O)c2ccccc2C1=O", "inhibition": "inconclusive: 12.5%"}
{"compound": "CCN(CC)CCNCc1nc2ccccc2c(=O)n1-c1ccc(F)cc1", "inhibition": "inactive: -1.26%"}
{"compound": "CCc1ccc(C2=NN(c3ccc(S(N)(=O)=O)cc3)C(c3ccc(F)cc3)C2)cc1", "note": "(centres undefined)", "inhibition": "inactive: -3.88%"}
{"compound": "CC(=O)NC(CCS(C)(=O)=O)C(=O)N1CCc2ccccc21", "note": "(centres undefined)", "inhibition": "inconclusive: 13.1%"}
{"compound": "Cc1c(NC(=O)c2ccc3ncccc3c2)c(=O)n(-c2ccccc2)n1C", "inhibition": "inconclusive: 6.66%"}
{"compound": "COc1ccc(S(=O)(=O)NCC2CCCN(Cc3cn(C)nc3C)C2)cc1", "note": "(centres undefined)", "inhibition": "inconclusive: 2.33%"}
{"compound": "Brc1ccc2c(c1)C(c1cccnc1)=NNC(c1cccs1)=N2", "inhibition": "inactive: -2.43%"}
{"compound": "Cc1ccc(S(=O)(=O)N2CCC(NC(=O)c3cccc(F)c3)CC2)cc1", "inhibition": "inconclusive: 2.66%"}
{"compound": "COc1ccc(-c2nc(C#N)c(NCc3ccc(F)cc3)o2)cc1OC", "inhibition": "active: 11.2%"}
{"compound": "C=CCOc1cccc(C2C(C(=O)c3ccc(C)o3)=C(O)C(=O)N2CCCn2ccnc2)c1", "note": "(centres undefined)", "inhibition": "inconclusive: 5.67%"}
{"compound": "CCC1(CC)NC(=O)N(CC(=O)Nc2ccc(OCc3ccccc3)cc2)C1=O", "inhibition": "inconclusive: 74.4%"}
{"compound": "COc1ccc(N=C2NC(=O)/C(=C\\C=C\\c3ccco3)S2)cc1", "inhibition": "inconclusive: 3.01%"}
{"compound": "COCCCn1c(SCc2ccc(OC)cc2)nc2cc(OC)c(OC)cc2c1=N", "inhibition": "active: 20.9%"}
{"compound": "CC(=O)Nc1ccc(S(=O)(=O)Nc2nc3ccccc3nc2Nc2ccc(C(=O)O)c(O)c2)cc1", "inhibition": "active: 25.5%"}
{"compound": "Nc1ccc(C(CC(=O)O)n2cccc2)cc1", "note": "(centres undefined)", "inhibition": "inconclusive: 7.11%"}
{"compound": "O=C(CC[C@H]1O[C@@H](n2ccc(=O)[nH]c2=O)[C@H](O)[C@@H]1O)N[C@H](Cc1ccccc1)C(=O)NCc1ccccc1", "inhibition": "inactive: -0.181%"}
{"compound": "COc1ccccc1OC(=O)c1cc2ccccc2oc1=O", "inhibition": "inactive: -0.707%"}
{"compound": "Cc1cc(C)c(C(=O)NNC(=O)c2cccnc2)c(C)c1", "inhibition": "inactive: -2.06%"}
{"compound": "CN(CC(=O)Nc1cccc(F)c1)C(=O)c1ccccc1-n1cnnn1", "inhibition": "inactive: -0.915%"}
{"compound": "COc1ccc(C2CC(=O)Oc3cc4c(cc32)OCO4)cc1", "note": "(centres undefined)", "inhibition": "inactive: -1.25%"}
{"compound": "CN(CC(=O)Nc1ccc(Cl)c(C(F)(F)F)c1)C(=O)c1cccnc1Sc1ccccc1", "inhibition": "inconclusive: 3.77%"}
{"compound": "CN(c1ccccc1)S(=O)(=O)c1ccc(NC(=O)CC(=O)c2ccccc2)cc1", "inhibition": "active: 24.8%"}
{"compound": "COCCCNC(=S)N/N=C/c1cccc(OC)c1O", "inhibition": "inconclusive: 17.7%"}
{"compound": "COCC(=O)Nc1ccc(Br)cc1C", "inhibition": "inconclusive: 9.13%"}
{"compound": "COc1cccc(NC(=S)/C(=C(\\[O-])c2cc(C)n(-c3ccccc3F)c2C)[n+]2ccc(N(C)C)cc2)c1", "inhibition": "inconclusive: 4.01%"}
{"compound": "CCN1C(=O)[C@H]2[C@@H](c3ccc(C)cc3)N3C(=O)N(c4cccc(C)c4)C(=O)[C@@]3(Cc3ccccc3)[C@H]2C1=O", "inhibition": "inactive: -1.36%"}
{"compound": "CCOc1cccc(=O)c2c(C)n(-c3ccc(C(=O)O)cc3)c(C)c12", "inhibition": "inconclusive: 9.19%"}
{"compound": "CCN(C(=O)CSc1nnc(SC)s1)c1c(N)n(Cc2ccccc2)c(=O)[nH]c1=O", "inhibition": "inconclusive: 4.1%"}
{"compound": "OC1(c2ccc3c(c2)OCO3)CCN(Cc2ccccn2)CC1", "inhibition": "inconclusive: 41.3%"}
{"compound": "C=CC(C)(C)c1c2occc2c(O)c2ccc(=O)oc12", "inhibition": "active: 14.2%"}
{"compound": "CN1CCN(c2ccc([N+](=O)[O-])cc2C(=O)N2CCOCC2)CC1", "inhibition": "inactive: -2.26%"}
{"compound": "O=C1c2ccccc2S(=O)(=O)N1Cc1nc2ccccc2s1", "inhibition": "inactive: -3.68%"}
{"compound": "Cc1cc(=O)c2c(o1)C(=O)c1occc1C2=O", "inhibition": "inconclusive: 10%"}
{"compound": "COC(=O)C1=C(c2ccc3ccccc3c2)C[C@@H]2CC[C@H]1N2C(=O)N1CCC(O)CC1", "inhibition": "inconclusive: 5.4%"}
{"compound": "O=C(CCCOc1ccc(Cl)cc1Cl)Nc1cc(S(=O)(=O)N2CCOCC2)ccc1N1CCOCC1", "inhibition": "inactive: -0.428%"}
{"compound": "COc1ccc(C(=O)Cn2c(=O)oc3ccc(C)cc32)cc1", "inhibition": "inconclusive: 5.5%"}
{"compound": "CCCCn1nnnc1NCc1ccc(N(CC)CC)cc1", "inhibition": "inactive: -2.52%"}
{"compound": "O=C(CSc1ccccn1)N1CCN(S(=O)(=O)c2ccc(Cl)cc2)CC1", "inhibition": "inconclusive: 5.76%"}
{"compound": "CNc1ccc2nc3ccccc3[n+](C)c2c1", "inhibition": "active: 57.4%"}
{"compound": "O=[N+]([O-])c1ccc(OCCn2cncn2)cc1", "inhibition": "inconclusive: 5.82%"}
{"compound": "CCC(C)OC(=O)C1=C(C)NC(=O)CC1c1ccccc1OC", "note": "(centres undefined)", "inhibition": "inconclusive: 5.26%"}
{"compound": "Cc1cccc(-n2c(C)nc3ccccc3c2=O)c1C", "inhibition": "inactive: -0.201%"}
{"compound": "FC(F)Sc1ccc(NC(=S)NCc2ccccc2)cc1", "inhibition": "inconclusive: 8.24%"}
{"compound": "CCOC(=O)c1c(C)nc2sc3c(=O)n(-c4ccc(C(C)=O)cc4)cnc3c2c1-c1ccc(OC)cc1", "inhibition": "inconclusive: 4.07%"}
{"compound": "O=c1c2c([nH]c3ccccc13)CCCCC2", "inhibition": "inactive: -0.494%"}
{"compound": "COc1cccc(OC)c1OCCN(C)C", "inhibition": "inconclusive: 2.99%"}
{"compound": "Cc1ccc(NC(=O)Nc2sc(=S)n(C)c2C)cc1", "inhibition": "active: 11.1%"}
{"compound": "Cc1cccc(C(=O)NCC(=O)OCc2nc(N)nc(Nc3ccccc3C)n2)c1", "inhibition": "inconclusive: 65%"}
{"compound": "COCc1[nH][nH]c(=O)c1C=Nc1ccc(C(F)(F)F)cc1", "inhibition": "inconclusive: 7.21%"}
{"compound": "O=C(NNC1CC(=O)N(c2ccc(Br)cc2)C1=O)c1cccnc1", "note": "(centres undefined)", "inhibition": "inconclusive: 3.08%"}
{"compound": "c1ccc2c(C[C@@H]3CNCCN3CC3CCCCC3)cccc2c1", "inhibition": "inconclusive: 4.65%"}
{"compound": "O=C(c1cc2cc(Cl)ccc2[nH]1)N1CCCCC1", "inhibition": "inconclusive: 3.83%"}
{"compound": "O=c1oc(-c2ccc(O)c(O)c2)cc2cc(O)cc(O)c12", "inhibition": "active: 12.5%"}
{"compound": "COc1ccc(CNC(=S)Nc2ccc3nc(N4CCOCC4)cc(C)c3c2)cc1", "inhibition": "inactive: -0.132%"}
{"compound": "COc1ccccc1COC(=O)c1cccc(S(=O)(=O)N2CCCC2)c1", "inhibition": "inconclusive: 3.82%"}
{"compound": "Cc1cc(N)n(-c2ccc(Oc3ccccc3)c(S(=O)(=O)O)c2)n1", "inhibition": "active: 13.9%"}
{"compound": "Cc1ccc(C)n1-c1nccc(-c2cccs2)n1", "inhibition": "inactive: 0.7%"}
{"compound": "C=CCSc1nnc2nc3c(nn12)c1cc(C)ccc1n3CC=C", "inhibition": "inconclusive: 9.28%"}
{"compound": "CCc1c(O)nc(SCC(=O)Nc2nc3ccccc3s2)n(C2CCCCC2)c1=O", "inhibition": "active: 12.5%"}
{"compound": "Cc1ccc(CN=c2c([N+](=O)[O-])nn(-c3cccc(C)c3)n2O)cc1", "inhibition": "inactive: 1.34%"}
{"compound": "O=[N+]([O-])c1cc([N+](=O)[O-])c2oc(-c3ccccc3)c(Br)c2c1O", "inhibition": "active: 26.1%"}
{"compound": "Cc1ccc(S(=O)(=O)N(C)C)cc1NC(=O)CSc1nnnn1-c1ccc(O)cc1", "inhibition": "inconclusive: 4.41%"}
{"compound": "Nc1ncnc2c1ncn2[C@@H]1O[C@H](CNCc2ccc(OCc3ccccc3)cc2)[C@@H](O)[C@H]1O", "inhibition": "inconclusive: 7.05%"}
{"compound": "Cc1cc(NCC2CCCO2)n2c(nc3ccccc32)c1C#N", "note": "(centres undefined)", "inhibition": "inactive: 0.429%"}
{"compound": "O=S(=O)(c1ccc(N2CCC(c3ccc(Cl)cc3)=N2)cc1)N(CCO)CCO", "inhibition": "inconclusive: 8.49%"}
{"compound": "CCOC(=O)c1c(NC(C)=O)sc2c(O)c(Br)cc(Br)c12", "inhibition": "inconclusive: 6.7%"}
{"compound": "COc1ccc(NC(=O)Nc2c(O)ccc3ccccc23)cc1", "inhibition": "inconclusive: 4.09%"}
{"compound": "CC(Oc1ccccc1)C(=O)OCC(=O)N1CC(=O)Nc2ccccc21", "note": "(centres undefined)", "inhibition": "inconclusive: 2.26%"}
{"compound": "COc1ncnc(-c2ccccc2)c1-c1ccccc1", "inhibition": "inconclusive: 5.96%"}
{"compound": "CCOC(=O)C1=C(C)OC(N)=C(C#N)C1c1cc(F)ccc1F", "note": "(centres undefined)", "inhibition": "inconclusive: 41.6%"}
{"compound": "COc1cc2cc(Oc3ccc4ccc(=O)oc4c3)c(=O)oc2cc1O[C@@H]1O[C@H](CO)[C@@H](O)[C@H](O)[C@H]1O", "inhibition": "inconclusive: 8.73%"}
{"compound": "Cc1nc(S/C(=C/c2ccc(-c3ccc(C(=O)O)cc3)o2)C(=O)O)n[nH]1", "inhibition": "inconclusive: 6.12%"}
